Data reported in PubChem BioAssay (NCI).
Values joined by “and” are separate entries in the source; they are usually repeats but may differ in a detail not shown here. Identical values can stand only once.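 Values below derive from 48-hour exposures of cells grown in 96-well plates, with endpoints linearly interpolated between the two concentrations bracketing the appropriate inhibition level. Here, GI50 denotes the concentration required for 50% inhibition of growth. TGI: concentration producing complete growth inhibition.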

Tested on: NCI-H322M lung
Experiment: NCI tumour cell line growth inhibition, 48 h

Compound | GI50 | TGI
COc1cc(-c2cn(C)c(=O)c(C)c2C)cc(OC)c1CN1CC[C@H](N2CCN(c3ccc(N[C@H]4CCC(=O)NC4=O)cc3F)CC2)C(F)(F)C1 | 16.2 µM | 53.3 µM
O=C(/C=C1\C[C@H]2C=Nc3ccccc3C(=O)N2C1)NCCCCCNC(=O)/C=C1\C[C@H]2C=Nc3ccccc3C(=O)N2C1 | – | 29.8 µM
COc1ccc(C(=O)C(C(=O)CCC(=O)Nc2cccc(C(F)(F)F)c2)c2ccccc2)cc1 (stereo unspecified) | – | > 100 µM
COc1ccc2c(-c3cc4ccccc4o3)cc(=O)oc2c1 | – | > 100 µM
C=C(COC(C)=O)CC(/C=C(\C)CCC=C(C)C)OC(C)=O (stereo unspecified) | – | > 100 µM
C=C(C)[C@@H]1CC[C@@]2(C(=O)O)CC[C@]3(C)C(CCC4[C@@]5(C)CCC(OS(=O)(=O)c6ccccc6)C(C)(C)C5CC[C@]43C)C12 (stereo partly specified) | 4.91 µM | 24.2 µM
CC(=O)O[C@H]1C(=O)[C@@]2(C)[C@H]([C@H](OC(=O)c3ccccc3)[C@]3([O-])C[C@H](OC(=O)[C@H]([O-])[C@@H](NC(=O)c4ccccc4)c4ccccc4)C(C)=C1C3(C)C)[C@]1(OC(C)=O)CO[C@@H]1C[C@@H]2[O-].[Fe+3] | 0.161 µM and 0.331 µM | 65 µM and > 100 µM
CC/C=C\C/C=C\C/C=C\CCCCCCCC(=O)OC(COC(=O)CCCCCCCCCCCCCCCCC)COC1OC(CO)C(O)C(O)C1O (stereo unspecified) | – | > 25 µM
CCOC1NC(=O)c2ccccc21 (stereo unspecified) | – | > 100 µM
Cc1ccc2c(c1)C(=O)/C(=C\c1ccc(Cl)cc1)CCS2(=O)=O | – | 14 µM
COc1ccccc1C(=O)c1ccc2ccccc2c1 | – | > 100 µM
C/C(=N\Nc1nc2ccccc2s1)c1cccnn1 | – | > 100 µM
O=[N+]([O-])c1ccc2nc3c(nc2c1)-c1c2ccccc2cc2cccc-3c12 | – | > 100 µM
CCN(CC(=O)O)CC(=O)O | – | > 100 µM
N#Cc1c(-c2ccccc2)nc2c(c(-c3ccccc3)nn2-c2ccccc2)c1-c1ccc(O)cc1 | 1.57 µM | 2.96 µM
COc1ccc(/C(C)=N/NC(=S)N(C)C)c(O)c1 | – | > 100 µM
CC12CCC(C/C1=N\NC(N)=O)C2(C)C (stereo unspecified) | – | > 100 µM
CCOC(=O)c1[nH]c2nc(SC)nc(NC)c2c1N | – | > 100 µM
Nc1n[nH]c2ccccc12 | – | > 100 µM
O=C(NCCCNCCCCNCCCNC(=O)C(F)(F)F)C(F)(F)F | – | > 100 µM
COC(=O)C(=O)C(C(=O)C(=O)Nc1cc([N+](=O)[O-])ccc1C#N)c1nc2ccccc2[nH]c1=O (stereo unspecified) | – | > 100 µM
Cc1cc(C)nc(NS(=O)(=O)c2ccc(Nc3c4ccccc4nc4c(C(=O)NCCO)cccc34)cc2)n1 | – | > 100 µM
COCC(=O)OC1CCn2c1nc1c2C(=O)C(C)=C(NC(C)=O)C1=O (stereo unspecified) | – | 38.6 µM
CCNC(=S)N/N=C/c1ccccn1 | – | > 100 µM
O=c1c(Cc2ccccc2)c(-c2ccccc2)[nH]n1C1=NCCN1 | – | > 100 µM
O=c1c2cc3c(=O)n(CCc4ccccc4CO)c(=O)c3cc2c(=O)n1CCc1ccccc1CO | – | > 100 µM
Cc1cn(C2CC(OC(c3ccccc3)(c3ccccc3)c3ccccc3)C(COC(c3ccccc3)(c3ccccc3)c3ccccc3)O2)c(=O)[nH]c1=O (stereo unspecified) | – | > 100 µM

Compound | GI50 | TGI
NNC(=O)c1cccc2c1Oc1ccccc1S2 | – | > 100 µM
Cc1ccc(C(=O)c2[nH]c(Nc3cc(C)ccn3)c(C(=S)Nc3ccccc3)c2N)cc1 | – | > 100 µM
CC(C)Cc1c(C#N)c(C#N)c(N)n1Cc1ccccc1 | – | > 100 µM
CC(C)(C)OC(=O)c1ccc(NCc2cc(O)ccc2O)cc1 | – | > 89.6 µM
COc1ccc(C2C(N)=NCC2c2ccccn2)cc1 (stereo unspecified) | – | > 100 µM
COc1cc(/C=C/C(=O)O)ccc1OS(=O)(=O)O | – | > 100 µM
CCCCCC(=O)Oc1ccc(/C(=C(\C)c2ccc(OC)cc2)c2ccc(OCCN3CCCCC3)cc2)cc1 | 13.2 µM | 26.5 µM
Cc1sc(C)c(-c2ccc(CO)o2)c1-c1ccc(CO)o1 | 50.5 µM | > 100 µM
CC(C)(C)c1nc2c(o1)C(=Nc1ccc(F)cc1)c1ccccc1C2=O | – | 42.2 µM
CC1(C)OC(=O)C=C([O-])O1.CC1(C)OC(=O)C=C([O-])O1.O=c1c(O)c(-c2ccc([O-])cc2[O-])oc2cc(O)cc(O)c12.[Ti+4] | – | > 100 µM
COC(=O)/C(=N\NC(=S)NN)C(C(=O)C(=O)Nc1ccccc1C(N)=O)c1nc2ccccc2[nH]c1=O (stereo unspecified) | – | > 100 µM
NCCN1CCN(c2nccc(-c3ccc4ccccc4c3)n2)CC1 | 2.07 µM | 4.99 µM
CCC1C(=O)OCc2c1cc1n(c2=O)CCC12OCCO2 (stereo unspecified) | – | > 100 µM
OCC1OC(O[C@H]2CN3[C@H](O)[C@@H](O)[C@H](O)[C@H]3C2O)C(O)C(O)C1O (stereo partly specified) | – | > 100 µM
COC(=O)c1cc2c3c(cc(NCCN)c2[nH]1)N(C(=O)c1cc2cc(OC)c(OC)c(OC)c2[nH]1)CC3CCl (stereo unspecified) | – | 0.606 µM
CN1CCN(C)C1c1cccc(C2N(C)CCN2C)c1 | – | > 100 µM
CCN(Cc1c(F)cccc1F)c1ccc(CO)c(Cl)c1 | 1.34 µM | 9.48 µM
OC(c1ccco1)C(F)(F)c1nc2ccccc2o1 (stereo unspecified) | – | > 100 µM
COc1cc2c3c(n(CCCN4CCC(N)CC4)c(=O)c2cc1OC)-c1cc2c(cc1C3=O)OCO2 | 0.847 µM | 3.27 µM
CC(=O)[CH-]C(C)=O.CC(=O)[CH-]C(C)=O.N=CC=N.[Sn+2] | 10.8 µM | 23 µM
Cc1cc(C)nc(NS(=O)(=O)c2ccc(Nc3c4ccccc4nc4c(C(=O)N5CCN(CCOS(C)(=O)=O)CC5)ccc(Cl)c34)cc2)n1 | – | > 100 µM
COc1ccc(CCCCl)c(C2=NCCc3ccccc32)c1 | – | > 100 µM
FC(F)(F)c1ccc2c(Nc3cccc(C4CC(c5ccccc5)=NN4c4ccc(Cl)cc4)c3)ccnc2c1 (stereo unspecified) | 16.6 µM | 87.3 µM
CC(=O)n1c(-c2ccc(Cl)cc2)nc2c(c1=O)C(c1ccc(Cl)cc1)c1sc3c(Cl)cccc3c1O2 (stereo unspecified) | 1.03 µM | 3.44 µM
Nc1nc(Nc2ccc(OCc3cccc(F)c3)cc2)c2c(n1)[nH]c1ccc(O)cc12 | 3.62 µM | 15.5 µM
Clc1cccc(C2ON=C(c3ccccc3)N2C23CC4CC(CC(C4)C2)C3)c1Cl (stereo unspecified) | – | > 10 µM
